These are yes or no findings as the source states them, for the method shown. For some assays here: In cells and extracts the contact can be indirect. Some results given as binding are weak or reduced against the parent protein; the word gives no strength. For some assays here: Tags and fused reporters may be left off the sequences shown.
T1: HisMBP-CYCA1;2/TAM (Arabidopsis thaliana) (UniProt Q9FVX0)
T1 sequence: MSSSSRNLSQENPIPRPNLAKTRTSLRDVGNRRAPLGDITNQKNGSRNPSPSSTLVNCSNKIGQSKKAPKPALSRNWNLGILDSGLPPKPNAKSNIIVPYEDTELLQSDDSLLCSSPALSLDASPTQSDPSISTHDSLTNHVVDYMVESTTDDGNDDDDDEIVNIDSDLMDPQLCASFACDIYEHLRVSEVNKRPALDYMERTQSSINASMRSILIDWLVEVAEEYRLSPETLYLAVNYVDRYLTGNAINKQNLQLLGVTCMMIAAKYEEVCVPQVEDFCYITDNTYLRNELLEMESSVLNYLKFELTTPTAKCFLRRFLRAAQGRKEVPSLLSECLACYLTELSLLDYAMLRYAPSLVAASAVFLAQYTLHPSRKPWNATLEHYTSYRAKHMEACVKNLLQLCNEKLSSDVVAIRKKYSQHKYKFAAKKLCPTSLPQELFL

Sequences of proteins named here, by UniProt entry; tags and fusion partners are left off.
UniProt P24100: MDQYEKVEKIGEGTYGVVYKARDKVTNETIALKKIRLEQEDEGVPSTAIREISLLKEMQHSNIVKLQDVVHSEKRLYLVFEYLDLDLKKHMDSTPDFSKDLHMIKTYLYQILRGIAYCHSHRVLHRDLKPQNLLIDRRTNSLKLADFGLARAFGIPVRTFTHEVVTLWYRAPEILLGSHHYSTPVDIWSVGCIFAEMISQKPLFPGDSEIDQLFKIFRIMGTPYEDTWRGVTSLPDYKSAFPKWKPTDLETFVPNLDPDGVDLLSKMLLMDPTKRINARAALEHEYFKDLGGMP
UniProt P25859: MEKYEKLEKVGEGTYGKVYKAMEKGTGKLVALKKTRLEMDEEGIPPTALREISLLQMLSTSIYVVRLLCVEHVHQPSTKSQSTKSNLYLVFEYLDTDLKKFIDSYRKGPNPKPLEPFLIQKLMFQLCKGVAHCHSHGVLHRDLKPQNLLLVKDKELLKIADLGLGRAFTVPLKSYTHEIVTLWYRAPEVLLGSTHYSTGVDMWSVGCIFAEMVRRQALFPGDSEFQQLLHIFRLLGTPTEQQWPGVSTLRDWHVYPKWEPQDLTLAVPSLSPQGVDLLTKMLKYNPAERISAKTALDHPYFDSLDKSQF

T2: OSD1 (OMISSION OF SECOND DIVISION), yeast two-hybrid bait (Arabidopsis thaliana) (UniProt Q9M2R1)
T2 sequence: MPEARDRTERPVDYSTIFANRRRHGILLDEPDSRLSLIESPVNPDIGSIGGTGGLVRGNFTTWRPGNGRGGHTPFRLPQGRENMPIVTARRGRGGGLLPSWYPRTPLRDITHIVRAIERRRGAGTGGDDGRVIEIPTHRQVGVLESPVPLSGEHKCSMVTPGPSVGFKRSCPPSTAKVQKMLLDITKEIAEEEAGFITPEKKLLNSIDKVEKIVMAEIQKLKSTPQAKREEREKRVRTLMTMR

T3: OSD1ΔD, yeast two-hybrid bait (Arabidopsis thaliana) (UniProt Q9M2R1)
T3 sequence: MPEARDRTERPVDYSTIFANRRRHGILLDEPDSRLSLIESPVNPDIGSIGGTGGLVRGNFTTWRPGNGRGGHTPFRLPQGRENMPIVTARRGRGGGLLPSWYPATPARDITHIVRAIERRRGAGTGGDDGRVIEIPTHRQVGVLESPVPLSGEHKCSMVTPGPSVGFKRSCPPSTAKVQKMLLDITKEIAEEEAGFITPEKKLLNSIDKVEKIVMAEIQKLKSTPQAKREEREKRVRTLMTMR

T4: OSD1ΔGxEN, yeast two-hybrid bait (Arabidopsis thaliana) (UniProt Q9M2R1)
T4 sequence: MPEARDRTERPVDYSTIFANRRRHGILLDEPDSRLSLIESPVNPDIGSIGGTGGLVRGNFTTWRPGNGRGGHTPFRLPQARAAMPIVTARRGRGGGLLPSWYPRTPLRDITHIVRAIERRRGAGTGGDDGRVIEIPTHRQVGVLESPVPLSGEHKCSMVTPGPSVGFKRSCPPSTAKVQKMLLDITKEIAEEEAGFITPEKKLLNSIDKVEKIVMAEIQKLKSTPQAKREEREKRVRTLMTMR


Tests used:
[1] = target: T1, HisMBP-CYCA1;2/TAM (Arabidopsis thaliana); assay: pull-down; HisMBP-CYCA1;2/TAM co-expressed with StrepIII-CDK and GST-Cak1 in E. coli, purified on a Ni-NTA column; co-purified StrepIII-CDKs detected with strep-tactin HRP
[2] = target: T2, OSD1 (OMISSION OF SECOND DIVISION), yeast two-hybrid bait (Arabidopsis thaliana); assay: two-hybrid; OSD1 as bait (pDEST32) with different APC/C subunits as prey (pDEST22), by mating
[3] = target: T2, OSD1 (OMISSION OF SECOND DIVISION), yeast two-hybrid bait (Arabidopsis thaliana); assay: two-hybrid; OSD1 mutant alleles as bait (pDEST32) against CCS52A1 as prey (pDEST22), cotransformation into yeast strain PJ69-4a
[4] = target: T3, OSD1ΔD, yeast two-hybrid bait (Arabidopsis thaliana); assay: as above
[5] = target: T4, OSD1ΔGxEN, yeast two-hybrid bait (Arabidopsis thaliana); assay: as above

Row | Molecule | binding [1] | binding [2] | further results
1 | StrepIII-CDKA;1 (from UniProt P24100 1-294) (enzyme) | binds | – | –
2 | StrepIII-CDKB1;1 (from UniProt P25859 1-309) (enzyme) | binds | – | –
3 | CCS52A1, yeast two-hybrid prey (protein, UniProt Q8L3Z8 1-483) MEEEDPTASNVITNSNSSSMRNLSPAMNTPVVSLESRINRLINANQSQSPSPSSLSRSIYSDRFIPSRSGSNFALFDLSPSPSKDGKEDGAGSYATLLRAAMFGPETPEKRDITGFSSSRNIFRFKTETHRSLNSFSPFGVDDDSPGVSHSGPVKAPRKVPRSPYKVLDAPALQDDFYLNLVDWSAQNVLAVGLGNCVYLWNACSSKVTKLCDLGAEDSVCSVGWALRGTHLAVGTSTGKVQIWDASRCKRTRTMEGHRLRVGALAWGSSVLSSGSRDKSILQRDIRCQEDHVSKLAGHKSEVCGLKWSYDNRELASGGNDNRLFVWNQHSTQPVLKYSEHTAAVKAIAWSPHVHGLLASGGGTADRCIRFWNTTTNTHLSSIDTCSQVCNLAWSKNVNELVSTHGYSQNQIIVWKYPTMSKIATLTGHTYRVLYLAVSPDGQTIVTGAGDETLRFWNVFPSPKSQNTDSEIGSSFFGRTTIR | – | binds | binding [3]: binds; binding [4]: no binding; binding [5]: binds
4 | StrepIII-CDKB2;2 (enzyme, UniProt Q8LG64 1-315) MDNNGVKPAVSAMEAFEKLEKVGEGTYGKVYRAREKATGMIVALKKTRLHEDEEGVPPTTLREISILRMLARDPHIVRLMDVKQGINKEGKTVLYLVFEYVDTDLKKFIRSFRQAGQNIPQNTVKCLMYQLCKGMAFCHGHGVLHRDLKPHNLLMDRKTMTLKIADLGLARAFTLPMKKYTHEILTLWYRAPEVLLGATHYSTGVDMWSVGCIFAELVTKQAIFAGDSELQQLLRIFRLLGTPNEEVWPGVSKLKDWHEYPQWKPLSLSTAVPNLDEAGLDLLSKMLEYEPAKRISAKKAMEHPYFDDLPDKSSL | binds | – | –
5 | APC6, yeast two-hybrid prey (protein, UniProt B3DNN5 1-543) MREEEIEKIRGVVRDCVSKHLYSSAIFFADKVAALTNDPSDIYMQAQALFLGRHYRRAFHLLNASKIVLRDLRFRYLAAKCLEELKEWDQCLLMLGDAKVDDDGIVYDAKDGNVIDFDKDGEDREINISSAICFLRGKAYGALQNRSQARQWYKAAIKADPLCYEALECLIESHMLTSEEESSLLSSLQFSPEDGWLSSFYSCLIKKYDKESTVELKFKKLENETSGSVSGSSMITLANNTDLLACKAEYYHQCCEYQKCFELTAALLEKDPFHLKCTLVHLAAAMELGNSNELYLMACNLVKDYPSKALSWFAVGCYYYCIKKYAEARRYFSKATGIDGSFSPARIGYGNSFAAQEEGDQAMSAYRTAARLFPGCHLPTLYIGMEYMRTHSYKLADQFFMQAKAICPSDPLVYNELGVVAYHMKEYGKAVRWFEKTLAHIPSALTESWEPTVVNLAHAYRKLRKDREAISYYERALTLSTKSLSTYSGLAYTYHLQGNFSAAISYYHKALWLKPDDQFCTEMLNVALMDECQNGVDSKVELC | – | no binding | –
6 | APC7, yeast two-hybrid prey (protein, UniProt Q8VY89 1-558) MEVPKEQIATLIEHGLYDSAEMLGCFLVSSPTVSAETSPQLKAENLILLGDALFHQREHRRAIHTYKQALHHYTRIPKQSSGISRSSLSLSTRSSVNASSISAINENEVRFKIASSHFALNETKAAIAEMESVKTRSLEMNILMAKLHRNSGYNRGAIAFYKECLRQCPYVLEAVIGLAELGVSAKDIISSFTQTSNRSAKVSLDQIDPTRWLQRYVEAQCCVASHAYKGALELFAELLQRFPNNVHLLTETAKVEAIIGKNDEAIMRFEKVRSIDPYTLTSMDEYAMLLQIKCDYSRLNKLVHDLLSVDHTRAEVFVALSVLWERKDARTALSYAEKSIRVDERHIPGYIMKGNLLLQAKRPEAAAIAFRAAQNLRSDLRSYQGLVHSYLAFGKTKEALYTAREAMNAMPQSAKALKLVGDVHAFTSSGREKAKKFYESGLRLEPGYLGAVLALAELHLMEGRNGDAVSLLERYLKDYADDSLHVKLAQVFAATNMLQDSLSHFQAALRINPQNEAAKKGLDRLEKQMKGIDPDATDENDENDVEDVDGDTEEAELM | – | no binding | –
7 | APC8, yeast two-hybrid prey (protein, UniProt Q9STS3 1-579) MVSKECCRNEIRAAIRQLSDRCLYSAAKWAGEQLVGIEQDPSNFTPANTRFQRGSSSIRRRFSTNESISTPLPSVGFSQAATPLPEEDEAIDGDIYLLAKSYFDCREYRRASHMLRDQVSKKSLFLRYYALYLAGEKRKEEEMIELEGPLGKSDAINRELVSLERDLSALRRTGAIDSFGLYLYGVVLKEKGNESLARASLVESVNSYPWNWSAWSELQSLCTSIEILNSLNLNNHWMKEFFLGNAYQELRMHTESLAKYEYLQGIFSFSNYIQAQTAKAQYSLREFDQVEIMFEELLRNDPYRVEDMDLYSNVLYAKEACAALSYLAHKVFLTDKYRPESCCIIGNYYSLKGQHEKAVMYFRRALKLNKKYLSAWTLMGHEYVEMKNTPAAIDAYRRAVDINPTDYRAWYGLGQAYEMMGMPFYALHYFRKSIFFLPNDSRLWIAMAKCYQTEQLYMLEEAIKCYKRAVNCTDTEGIALNQLAKLHQKLGRNEEAAYYFEKDLERMDAEGLEGPNMFEALVFLATHFKNHKKFEEAEVYCTRLLDYSGPEKEKAKSLLRGIRMAQTGFPSMDLEHFPI | – | no binding | –
8 | APC10, yeast two-hybrid prey (protein, UniProt Q9ZPW2 1-192) MATESSESEEEGKISGGNYKLIIDDDLREMGKNAAWSVSSCKPGNGVTTLRDDNLETYWQSDGLQPHLINIQFQKKVKLQLVVLYVDFKLDESYTPSKISIRAGDGFHNLKEIKSVELVKPTGWVCLSLSGTDPRETFVNTFMLQIAILSNHLNGRDTHIRQIKVYGPRPNPIPHQPFQFTSMEFLTYSTLR | – | no binding | –

Reference: article PMC3406007
